Assay [1] deals with T1, HAQ STING protein, THP1 Dual (HAQ) human cells (Homo sapiens (Human), UniProt Q86WV6, G230A/H232R/R293Q/R71H). Particulars: for EC50: read-out: Human HAQ Agonist EC50.
Assay [2] has as its target T1, HAQ STING protein, THP1 Dual (HAQ) human cells. In words: cell-based. Particulars: for Emax: THP1-Dual, 5 h, read-out: Human HAQ Agonist Efficacy, 5 hrs.
In assay [3] the test system is STING pathway, RAW-Dual Reporter cell line. The assay can be described thus: cells. The following applies: for Murine Agonist Efficacy / EC50: 5 hrs; for EC50: read-out: Murine Agonist EC50; for Emax: Mus musculus, 5 h, read-out: Murine Agonist Efficacy, 5 hrs.
For assay [4], the target named is T2, wildtype (WT) STING protein, THP1 Dual (WT) human cells (Homo sapiens (Human), UniProt Q86WV6, H232R). In words: cell-based. The following applies: for EC50: Human WT Agonist EC50, 5 hrs; for Emax: THP1-Dual, 5 h, read-out: Human WT Agonist Efficacy, 5 hrs.
Assay [5] deals with T2, wildtype (WT) STING protein, THP1 Dual (WT) human cells.

Like-named read-outs stand apart in the source and are kept apart here.

Broadly, the EC50 is the concentration at which the effect is half-maximal.

T1 sequence (Q86WV6 whole entry R71H/G230A/H232R/R293Q): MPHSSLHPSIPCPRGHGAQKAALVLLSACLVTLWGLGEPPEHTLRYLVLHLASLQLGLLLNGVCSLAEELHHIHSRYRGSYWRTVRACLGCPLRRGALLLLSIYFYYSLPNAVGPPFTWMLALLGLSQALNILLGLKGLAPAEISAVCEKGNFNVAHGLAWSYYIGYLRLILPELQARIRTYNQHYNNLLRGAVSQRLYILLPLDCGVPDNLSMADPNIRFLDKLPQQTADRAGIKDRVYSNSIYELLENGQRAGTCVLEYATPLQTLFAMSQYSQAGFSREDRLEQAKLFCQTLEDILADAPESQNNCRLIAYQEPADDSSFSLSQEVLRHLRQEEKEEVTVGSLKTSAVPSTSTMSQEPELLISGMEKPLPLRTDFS
T2 sequence (Q86WV6 whole entry H232R): as the sequence (Q86WV6 whole entry R71H/G230A/H232R/R293Q) above, with H71R, A230G, Q293R counted along it

`Nc1nc2c(ncn2[C@@H]2O[C@@H]3COP(=O)(S)OCCn4c(nc5cncnc54)COP(=O)(S)O[C@@H]2[C@@H]3F)c(=O)[nH]1` (single isomer, unassigned) [Example 1B]: in assay [1] (5 hrs), the “Human HAQ Agonist Efficacy” value was under 100%. The EC50 in assay [2] (Human HAQ Agonist EC50, 5 hrs) was in the range of 10 to 99.9 µM; in assay [3], 10 to 99.9 µM. Moreover, in assay [3], the “Murine Agonist Efficacy” value is over 100%.
Turning to `Nc1nc2c(ncn2[C@@H]2O[C@@H]3COP(=O)(S)OCCn4c(nc5c(N)ncnc54)COP(=O)(S)O[C@@H]2[C@@H]3F)c(=O)[nH]1` (single isomer, unassigned) [Example 7B], the values for the EC50 in assay [1] (5 hrs), in assay [4] and in assay [3] were under 10 µM, 100 to 999 µM and 10 to 99.9 µM, respectively.
Consider `Nc1nc2c(ncn2[C@@H]2O[C@@H]3COP(=O)(S)OCCn4c(nc5c(N)ncnc54)COP(=O)(S)O[C@@H]2[C@@H]3F)c(=O)[nH]1` (single isomer, unassigned) [Example 7C], for which the EC50 in assay [1] (5 hrs), in assay [4] and in assay [3] was under 10 µM in each case. Besides, the Emax in assay [4], in assay [2] and in assay [3] was over 100% throughout.
As to `Nc1nc2c(ncn2[C@@H]2O[C@@H]3COP(=O)(S)OCCn4c(nc5c(N)ncnc54)COP(=O)(S)O[C@@H]2[C@@H]3F)c(=O)[nH]1` (single isomer, unassigned) [Example 7D], the EC50 was under 10 µM in assay [1] (5 hrs), 10 to 99.9 µM in assay [4] and under 10 µM in assay [3].
`Cc1ncc2nc3n(c2n1)CCOP(=O)(S)OC[C@H]1O[C@@H](n2cnc4c(=O)[nH]c(N)nc42)[C@H](OP(=O)(S)OC3)[C@@H]1F` (single isomer, unassigned) [Example 11A]: the “Human HAQ Agonist Efficacy” value in assay [1] (5 hrs) is listed as over 100%. In addition, in assay [3], the “Murine Agonist Efficacy” value was over 100% and the EC50 was in the range of 10 to 99.9 µM. The “Human WT Agonist Efficacy” value in assay [5] (5 hrs) was under 100%.
With `Cc1ncc2nc3n(c2n1)CCOP(=O)(S)OC[C@H]1O[C@@H](n2cnc4c(=O)[nH]c(N)nc42)[C@H](OP(=O)(S)OC3)[C@@H]1F` (single isomer, unassigned) [Example 11C], in assay [1] (5 hrs), the “Human HAQ Agonist Efficacy” value is recorded as over 100%. In assay [3], the “Murine Agonist Efficacy” value was over 100% and the EC50 is under 10 µM. In addition, the “Human WT Agonist Efficacy” value in assay [5] (5 hrs) is recorded as over 100%.
In the case of `Cc1ncc2nc3n(c2n1)CCOP(=O)(S)OC[C@H]1O[C@@H](n2cnc4c(=O)[nH]c(N)nc42)[C@H](OP(=O)(S)OC3)[C@@H]1F` (single isomer, unassigned) [Example 11D], the “Human HAQ Agonist Efficacy” value in assay [1] (5 hrs) is over 100%. Further, in assay [3], the “Murine Agonist Efficacy” value is given as over 100% and the EC50 is under 10 µM. Further, the “Human WT Agonist Efficacy” value in assay [5] (5 hrs) was under 100%.
Turning to `Nc1nc2c(ncn2[C@@H]2O[C@@H]3COP(=O)(S)OCCn4c(nc5cc(Cl)cnc54)COP(=O)(S)O[C@@H]2[C@@H]3F)c(=O)[nH]1` (single isomer, unassigned) [Example 14C], the “Human HAQ Agonist Efficacy” value in assay [1] was over 100%. Further, in assay [3], the “Murine Agonist Efficacy” value is over 100% and the EC50 was under 10 µM. Further, the “Human WT Agonist Efficacy” value in assay [5] is given as over 100%.
As to `Nc1nc2c(ncn2[C@@H]2O[C@@H]3COP(=O)(S)OCCn4c(nc5cc(Cl)cnc54)COP(=O)(S)O[C@@H]2[C@@H]3F)c(=O)[nH]1` (single isomer, unassigned) [Example 14D], in assay [1], the “Human HAQ Agonist Efficacy” value is over 100%. Moreover, in assay [3], the “Murine Agonist Efficacy” value is reported as over 100% and the EC50 is under 10 µM. The “Human WT Agonist Efficacy” value in assay [5] was under 100%.
For `Nc1nc2c(ncn2[C@@H]2O[C@@H]3COP(=O)(S)OCCn4nc(-c5cncs5)nc4COP(=O)(S)O[C@@H]2[C@@H]3F)c(=O)[nH]1` (single isomer, unassigned) [Example 16C], the “Human HAQ Agonist Efficacy” value in assay [1] is reported as over 100%. For the same compound, in assay [3], the “Murine Agonist Efficacy” value is recorded as over 100% and the EC50 is under 10 µM. Besides, the “Human WT Agonist Efficacy” value in assay [5] is over 100%.
Regarding `Nc1nc2c(ncn2[C@@H]2O[C@@H]3COP(=O)(S)OCCn4nc(-c5cncs5)nc4COP(=O)(S)O[C@@H]2[C@@H]3F)c(=O)[nH]1` (single isomer, unassigned) [Example 16D], the “Human HAQ Agonist Efficacy” value in assay [1] is reported as over 100%. Moreover, in assay [3], the “Murine Agonist Efficacy” value is recorded as over 100% and the EC50 is under 10 µM. Also, the “Human WT Agonist Efficacy” value in assay [5] is reported as under 100%.
In the case of `Nc1nc2c(ncn2[C@@H]2O[C@@H]3COP(=O)(S)OCCCn4c(nc5cncnc54)COP(=O)(S)O[C@@H]2[C@@H]3F)c(=O)[nH]1` (single isomer, unassigned) [Example 18C], the “Human HAQ Agonist Efficacy” value in assay [1] (5 hrs) was over 100%. In assay [3], the “Murine Agonist Efficacy” value is on record as over 100% and the EC50 is under 10 µM. Further, the “Human WT Agonist Efficacy” value in assay [5] (5 hrs) is given as over 100%.
Take `Nc1nc2c(ncn2[C@@H]2O[C@@H]3COP(=O)(S)OCCCn4c(nc5cncnc54)COP(=O)(S)O[C@@H]2[C@@H]3F)c(=O)[nH]1` (single isomer, unassigned) [Example 18D]: the “Human HAQ Agonist Efficacy” value in assay [1] (5 hrs) is on record as over 100%. Further, in assay [3], the “Murine Agonist Efficacy” value was under 100% and the EC50 lay in the range of 100 to 999 µM. Moreover, the “Human WT Agonist Efficacy” value in assay [5] (5 hrs) is recorded as under 100%.
For the compound `Nc1nc2c(ncn2[C@@H]2O[C@@H]3COP(=O)(S)OCC(F)(F)Cn4c(nc5cncnc54)COP(=O)(S)O[C@@H]2[C@@H]3F)c(=O)[nH]1` (single isomer, unassigned) [Example 19B], the “Human HAQ Agonist Efficacy” value in assay [1] is reported as under 100%. Moreover, in assay [3], the “Murine Agonist Efficacy” value was under 100% and the EC50 lay within 100 to 999 µM. Besides, in assay [5], the “Human WT Agonist Efficacy” value is listed as under 100%.
Consider `Nc1nc2c(ncn2[C@@H]2O[C@@H]3COP(=O)(S)OCC(F)(F)Cn4c(nc5cncnc54)COP(=O)(S)O[C@@H]2[C@@H]3F)c(=O)[nH]1` (single isomer, unassigned) [Example 19D], for which, in assay [1], the “Human HAQ Agonist Efficacy” value was over 100%. Further, in assay [3], the “Murine Agonist Efficacy” value was over 100% and the EC50 is under 10 µM. For the same compound, in assay [5], the “Human WT Agonist Efficacy” value is over 100%.
Turning to `Nc1nc2c(ncn2[C@@H]2O[C@@H]3COP(=O)(S)OCCn4c(nc5cncnc54)COP(=O)(S)O[C@@H]2C3)c(=O)[nH]1` (single isomer, unassigned) [Example 22C], in assay [1], the “Human HAQ Agonist Efficacy” value is on record as over 100%. In assay [3], the “Murine Agonist Efficacy” value is under 100% and the EC50 is 10 to 99.9 µM. Also, the “Human WT Agonist Efficacy” value in assay [5] is reported as under 100%.
In the case of `Nc1nc2c(ncn2[C@@H]2O[C@@H]3COP(=O)(S)OCCn4c(nc5cncnc54)COP(=O)(S)O[C@@H]2C3)c(=O)[nH]1` (single isomer, unassigned) [Example 22D], the “Human HAQ Agonist Efficacy” value in assay [1] is over 100%. In assay [3], the “Murine Agonist Efficacy” value was over 100% and the EC50 was under 10 µM. The “Human WT Agonist Efficacy” value in assay [5] is given as over 100%.
Take `Nc1nc2c(nnn2[C@@H]2O[C@@H]3COP(=O)(S)OCCn4c(nc5cncnc54)COP(=O)(S)O[C@@H]2[C@@H]3F)c(=O)[nH]1` (single isomer, unassigned) [Example 24C]: the “Human HAQ Agonist Efficacy” value in assay [1] is on record as over 100%. Further, in assay [3], the “Murine Agonist Efficacy” value is under 100% and the EC50 is under 10 µM. Besides, the “Human WT Agonist Efficacy” value in assay [5] is on record as over 100%.
Regarding `Nc1nc2c(nnn2[C@@H]2O[C@@H]3COP(=O)(S)OCCn4c(nc5cncnc54)COP(=O)(S)O[C@@H]2[C@@H]3F)c(=O)[nH]1` (single isomer, unassigned) [Example 24D], in assay [1], the “Human HAQ Agonist Efficacy” value is listed as over 100%. Further, in assay [3], the “Murine Agonist Efficacy” value is listed as over 100% and the EC50 is under 10 µM. Also, the “Human WT Agonist Efficacy” value in assay [5] was under 100%.
Take `CO[C@H]1[C@H]2OP(=O)(S)OCc3nc4cncnc4n3CCOP(=O)(S)OC[C@H]1O[C@H]2n1cnc2c(=O)[nH]c(N)nc21` (single isomer, unassigned) [Example 27C]: the EC50 in assay [1] (5 hrs), in assay [4] and in assay [3] was under 10 µM in each case. Moreover, the results for the Emax in assay [4], in assay [2] and in assay [3] were under 100%, over 100% and under 100%, respectively.
In the case of `CO[C@H]1[C@H]2OP(=O)(S)OCc3nc4cncnc4n3CCOP(=O)(S)OC[C@H]1O[C@H]2n1cnc2c(=O)[nH]c(N)nc21` (single isomer, unassigned) [Example 27D], the EC50 in assay [1] (5 hrs) was under 10 µM; in assay [4], 10 to 99.9 µM; in assay [3] it was under 10 µM.
As to `Nc1nc2c(ncn2[C@@H]2O[C@@H]3COP(=O)(S)OCCn4c(nc5cncnc54)COP(=S)(S)O[C@@H]2[C@@H]3F)c(=O)[nH]1` (single isomer, unassigned) [Example 29A], the “Human HAQ Agonist Efficacy” value in assay [1] (5 hrs) is over 100%. Further, in assay [3], the “Murine Agonist Efficacy” value is over 100% and the EC50 was 10 to 99.9 µM. Besides, in assay [5] (5 hrs), the “Human WT Agonist Efficacy” value is under 100%.
Consider `Nc1nc2c(ncn2[C@@H]2O[C@@H]3COP(=O)(S)OCCn4c(nc5cncnc54)COP(=S)(S)O[C@@H]2[C@@H]3F)c(=O)[nH]1` (single isomer, unassigned) [Example 29B], for which the “Human HAQ Agonist Efficacy” value in assay [1] (5 hrs) is reported as over 100%. In assay [3], the “Murine Agonist Efficacy” value was over 100% and the EC50 is under 10 µM. Moreover, the “Human WT Agonist Efficacy” value in assay [5] (5 hrs) is recorded as over 100%.
As to `Nc1nc2c(ncn2[C@@H]2O[C@@H]3COP(=O)(S)O[C@H]4C[C@H](C4)n4c(nc5cncnc54)COP(=O)(S)O[C@@H]2C3)c(=O)[nH]1` (single isomer, unassigned) [Example 35C], the “Human HAQ Agonist Efficacy” value in assay [1] (5 hrs) is over 100%. In assay [3], the “Murine Agonist Efficacy” value is reported as over 100% and the EC50 lay in the range of 10 to 99.9 µM. In assay [5] (5 hrs), the “Human WT Agonist Efficacy” value is reported as under 100%.
